Measurements as given in PubChem BioAssay AID445 (National Center for Advancing Translational Sciences (NCATS), 2006).
In all, about 110,000 compounds went through this assay and about 40 (0.04%) were called active. This list was built around the results that the source calls inconclusive (neither active nor inactive); the mix of calls is not that of the screen. Calls come from the whole dose curve; as a rule, active = well fitted curve in the direction sought with a large enough effect in the signal ratio (not every such curve was filed as active); inconclusive = small, poorly fitted or top-dose-only effect, or a change in a side signal; inactive = flat fitted curve, though single readings scatter; the % refers to the signal ratio. Where the call is inconclusive, the potency comes from a doubtful curve fit.

Test: IkB Signaling;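 for IkBa stabilization activation: 0% = basal untreated cells and 100% = reference inhibitor full response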
Settings: ABC-DLBCL IkBa-CBG/CBR dual luciferase ratio (green luciferase fused to IkBa over red control in OCI-Ly3 lymphoma cells), 4 h; IkBa stabilization activation: at 57.1 µM (top of the series), scaled: untreated 0%, proteasome inhibitor 100% unless noted
Outline: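 In this assay, an IκBα–CBG68 fusion accumulates when IKK-driven degradation is blocked; native CBR normalizes for cell number. OCI-Ly3 cells were treated 4 h with compound and doxycycline, then green and red light read after Chroma-Glo addition.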
Potency is the fitted concentration of half-maximal effect.

Structure (SMILES)	IkBa stabilization activation	Potency
COc1ccc(Oc2ncc3nc(-c4cccc(C#N)c4)c(=O)n(C)c3n2)cc1	inactive: 3.34% [at 11.4 µM, scaled: untreated 0%, proteasome inhibitor 100%]	
c1ccc(CCc2nn3c(Cn4cnc5ccccc54)nnc3s2)cc1	inactive	
CCc1ccccc1Nc1nn2c(=O)c3ccc(C(=O)NCc4ccccc4OC)cc3nc2s1	inconclusive: 0.758% [signal inhibitor]	
CCOC(=O)c1c(C)[nH]c(C)c1S(=O)(=O)N1CCCC(C(=O)Nc2ccc(C)cn2)C1 (stereo unspecified)	inconclusive: -1.34% [signal inhibitor]	
COc1ccccc1Cn1cc(C(=O)c2ccc(C)cc2)c(=O)c2cc(C)ccc21	inconclusive: 1.56% [signal inhibitor]	
CCN(c1ccccc1)c1ccc2cc(S(=O)(=O)N3CCCC3)ccc2n1	inactive	
Clc1ccc2c(c1)NC(c1ccncc1)=NC(c1cccs1)=N2	inconclusive: 5.02% [signal inhibitor]	
COc1ccc2c(c1)CCc1c(C(=O)Nc3c(C)nn(Cc4ccccc4C)c3C)noc1-2		inconclusive: 12.6 µM [signal inhibitor]
COc1cc(CNC(=O)c2ccc3nc(CCc4ccccc4)oc3c2)cc(OC)c1OC	inconclusive: 2.8% [signal inhibitor]	
CCN(CC)S(=O)(=O)c1cccc(C(=O)Nc2ccc(C#N)cc2)c1	inconclusive: 2.52% [signal inhibitor]	
CNS(=O)(=O)c1cn(CC(=O)N2CCN(c3cccc(C)c3C)CC2)cc1S(=O)(=O)NC	inconclusive: 1.2% [signal inhibitor]	
CCN1CCN(C(=O)c2cnn(-c3cccc(Cl)c3)c2C2CCN(C(=O)OC(C)(C)C)CC2)CC1	inconclusive: 3.07% [signal inhibitor]	
CCCCn1nnnc1SCC(=O)Nc1sc2c(c1C#N)CCCC2	inconclusive: 7.95% [signal inhibitor]	
COc1ccc(S(=O)(=O)NCCC(=O)NC2CCCCCCC2)cc1	inactive	
COC(=O)c1ccc(-c2nc(-c3cccs3)no2)cc1	inactive	
COc1ccc(OCCSc2nnnn2C2CCCCC2)cc1	inactive	
CN1CCN(c2ccccc2NC(=O)c2ccc(OCc3ccccc3)cc2)CC1	inconclusive: 0.662% [signal inhibitor]	
CCc1c(C)sc(NC(=O)c2ccco2)c1C(=O)N1CCCCC1	inactive	
Cc1cccc(NC(=O)c2ccc3snnc3c2)c1C	inconclusive: 1.71% [signal inhibitor]	
N#C[C@@H]1[C@@H]2C(=O)N(c3ccc4c(c3)OCCO4)C(=O)[C@@H]2C2c3ccccc3C=CN21 (stereo partly specified)	inconclusive: 11.2% [signal inhibitor]	
COc1ccc(-c2csc(/C(C#N)=C(\O)CSc3nccn3C)n2)cc1OC	inactive	
COCC(C)NC(=O)c1cc(-c2ccc(O)cc2)on1 (stereo unspecified)		inconclusive: 25.1 µM [signal inhibitor, partial curve]

Structure (SMILES)	IkBa stabilization activation	Potency
CC(C)CN(CCCNC(=O)CN1N=C(c2ccc(Cl)cc2)CCC1=O)CC(C)C	inconclusive: 1.09% [signal inhibitor]	
CC[C@@](N)(C(=O)O)c1ccc(C(=O)O)cc1	inactive	
Cc1ccc(OCC(=O)Nc2cccc(-c3nc4ccccc4s3)c2)cc1	inconclusive: 4.09% [signal inhibitor]	
CCOc1ccc(NC(=O)C2CC(=O)NC(=Nc3ccc(Cl)c(Cl)c3)S2)cc1 (stereo unspecified)	inconclusive: 1.24% [signal inhibitor]	
Cc1c(C(=O)NCc2ccccc2)sc2nc3n(c(=O)c12)CCCCC3	inactive	
CCOC(=O)c1ccc(NC(=O)C2CCCN(c3ncnc4onc(-c5ccc(F)cc5)c34)C2)cc1 (stereo unspecified)	inconclusive: -1.57% [signal inhibitor]	
CCOC(=O)C1(N(CC)CC)Sc2cc(C)ccc2NC1=O (stereo unspecified)	inactive	
Cc1ccc(Cl)cc1N1CCN(C(=O)c2ccc(NC(=O)c3nsc4ccccc34)cc2)CC1	inactive	
CN(C)c1ncc2nc(-c3cc(F)cc(F)c3)c(=O)n(-c3ccccc3)c2n1	inactive: 1.69% [at 11.4 µM, scaled: untreated 0%, proteasome inhibitor 100%]	
COC(=O)C(Cc1c[nH]c2ccccc12)NC(=O)COc1cccc(C)c1 (stereo unspecified)	inconclusive: -1.81% [signal inhibitor]	
COCCNC(=O)CCn1c(=O)c2cc(OC)c(OC)cc2n(CC(=O)Nc2ccc(Cl)cc2F)c1=O	inconclusive: 8.72% [signal inhibitor]	
O=C(COc1ccccc1)N1CCN(c2nnc(-c3ccccc3)c3ccccc23)CC1	inconclusive: -3.11% [signal inhibitor]	
Cc1cccc(CSC2=NCCN2C(=O)c2ccc(Br)o2)c1	inactive	
Cc1ccc(-c2ccc(=O)n(CC(=O)Nc3ccc(C)cc3Cl)n2)cc1	inconclusive: 3.4% [signal inhibitor]	
O=C(CSc1nnc(-c2cnccn2)n1Cc1ccco1)Nc1ccc(Br)cc1	inconclusive: 0.947% [signal inhibitor]	
COc1ccc(C(=O)Nc2ccc3oc(-c4cccnc4)nc3c2)cc1	inconclusive: 7.51% [signal inhibitor]	
Clc1cccc(N2CCN(c3nc4ccccc4n4nnnc34)CC2)c1		inconclusive: 1.58 µM [signal inhibitor]
O=C1c2ccccc2C(=O)c2c(Nc3cc4c5c(ccc6c7ccc8c9c(cc(Nc%10cccc%11c%10C(=O)c%10ccccc%10C%11=O)c(c3c56)c97)-c3ccccc3C8=O)C(=O)c3ccccc3-4)cccc21	inactive: 0.0843% [at 11.4 µM, scaled: untreated 0%, proteasome inhibitor 100%]	
CC(C)(C)OC(=O)N1CCC(c2c(C(=O)Nc3ccc4c(c3)OCCO4)cnn2-c2ccc(Cl)cc2)CC1	inactive	
O=C(NCc1ccccc1)C1CCCN(S(=O)(=O)c2cccc3nsnc23)C1 (stereo unspecified)	inconclusive: -1.49% [signal inhibitor]	
O=C1CN(C(=O)COc2ccc(Cl)cc2)C(c2ccccc2)c2cc(Br)ccc2N1 (stereo unspecified)	inconclusive: 1.96% [signal inhibitor]	
CCC1CCCCN1CC(=O)Nc1cc(C)nn1-c1nc(C)cc(C)n1 (stereo unspecified)	inactive	

Structure (SMILES)	IkBa stabilization activation	Potency
CCCCCOC(=O)c1[nH]c2c(c1C)C(=O)C(C(=O)OC)C(C)C2 (stereo unspecified)	inconclusive: 3.77% [signal inhibitor]	
CCOc1ccc(NC(=O)CN2C(=O)CC(C)Sc3ccccc32)cc1 (stereo unspecified)	inconclusive: -0.806% [signal inhibitor]	
CCOC(=O)c1cnc(-n2cc(C)cn2)nc1NCc1ccc2c(c1)OCO2	inactive	
CCn1cc(CCC(=O)NCc2ccc(C)cc2)c2ccccc21	inconclusive: 1.52% [signal inhibitor]	
CCOC(=O)Cc1csc(NC(=O)COc2ccc(N(C)S(=O)(=O)c3cccs3)cc2)n1	inconclusive: -0.132% [signal inhibitor]	
COc1cc2c(cc1OC)C(=O)Cc1ccc3c(c1CN(C)CC2)OCO3	inactive: -0.47% [at 11.4 µM, scaled: untreated 0%, proteasome inhibitor 100%]	
COc1cc2c(=O)n(Cc3ccccc3Cl)c(=O)n(CC(=O)Nc3ccc(C)c(C)c3)c2cc1OC	inconclusive: 4.58% [signal inhibitor]	
CCOC(=O)c1cn(-c2ccccc2)nc1-c1ccncc1	inactive	
CCC1CN(C(=O)N2CCC(C(=O)NCc3ccc(N(C)C)cc3)CC2)c2ccccc2O1 (stereo unspecified)	inconclusive: 3.72% [signal inhibitor]	
O=C(Nc1nc(-c2ccccn2)cs1)C1COc2ccccc2O1 (stereo unspecified)		inconclusive: 5.01 µM [rising, partial curve]
O=C(C1CCCN(S(=O)(=O)c2ccc(F)cc2)C1)N(Cc1cccs1)C1CC1 (stereo unspecified)	inconclusive: 2.48% [signal inhibitor]	
Cc1cc(N2CCC(C(=O)Nc3ccc(F)cc3)CC2)nc(-c2ccccc2)n1	inconclusive: 16.8% [signal inhibitor]	
CCCOc1cccc(C(=O)Nc2cccc(-c3nc4ncccc4o3)c2C)c1	inconclusive: 0.18% [signal inhibitor]	
CN(C)c1ccc(-c2ccc3ncnc(N4CCNCC4)c3c2)cc1	inactive: -1% [at 11.4 µM, scaled: untreated 0%, proteasome inhibitor 100%]	
CCn1cc2nc(SCC(=O)Nc3ccc(OC)c(OC)c3)n(Cc3ccc(Cl)cc3)c(=O)c2n1	inconclusive: 7.05% [signal inhibitor]	
Cc1cn2c(=O)cc(COC(=O)c3cccc(NC(=O)c4ccc(C(C)(C)C)cc4)c3)nc2s1	inconclusive: 12.5% [signal inhibitor]	
Cc1c(C(=O)NCc2ccccc2Cl)sc2nc3n(c(=O)c12)CCCCC3	inconclusive: 0.314% [signal inhibitor]	
CC(=O)c1cccc(NC(=O)C2CCN(C(=O)c3cnn(-c4ccccc4)c3-n3cccc3)CC2)c1	inconclusive: 2.2% [signal inhibitor]	
COc1cc(/C=C(/C#N)c2ccc(F)cc2)ccc1OCc1ccc(C(=O)O)o1	inactive	
Cc1ccccc1-c1nc2scc(CCNS(=O)(=O)c3ccccc3)n2n1	inconclusive: 2.41% [signal inhibitor]	
Cc1nn2c(=O)cc(COC(=O)c3cccc(NC(=O)CCc4ccccc4)c3)nc2s1		inconclusive: 25.1 µM [signal inhibitor, partial curve]
O=C(Cn1cc(SCc2ccc(C(F)(F)F)cc2)c2ccccc21)N1CCOCC1	inconclusive: 3.15% [signal inhibitor]	
